Test results as given in PubChem BioAssay AID1794842 (National Center for Advancing Translational Sciences (NCATS), 2023).
Hit rate of the full screen: of about 2,800 compounds, fewer than 10 were called active. Calls come from the whole dose curve; as a rule, active = well fitted curve in the direction sought with a large enough effect; inconclusive = small, poorly fitted or top-dose-only effect, or another doubt; inactive = no such curve, though single readings can be large or run the other way. Some of the results follow.

Molecular target: Metallo-beta-lactamase type 2 (Klebsiella pneumoniae) (UniProt C7C422)
UniProt C7C422, sequence (C7C422 whole entry, looked up): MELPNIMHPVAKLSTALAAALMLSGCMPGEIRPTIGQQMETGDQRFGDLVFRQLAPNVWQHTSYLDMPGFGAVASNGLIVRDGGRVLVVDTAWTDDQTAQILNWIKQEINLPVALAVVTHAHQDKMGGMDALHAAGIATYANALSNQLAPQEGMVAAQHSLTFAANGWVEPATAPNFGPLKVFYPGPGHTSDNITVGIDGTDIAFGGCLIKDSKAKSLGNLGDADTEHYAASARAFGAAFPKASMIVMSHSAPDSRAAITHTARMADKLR
Experiment: qHTS to identify inhibitors of the New Delhi Metallo-beta-lactamase (NDM): Meropenem screen against the machine-based learning selections. Note: % of control where 0% means no effect.
Conditions: Purified NDM-1, meropenem hydrolysis, absorbance 300 nm; at 38.4 µM (top of the series) unless noted
Summary of the method: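 NDM-1 (2 nM final) in 50 mM HEPES pH 7.0, 1 uM Zn2SO4, 0.01% Tween20 was preincubated with compounds for >30 min. Nitrocefin (16.7 uM final) was read at 485 nm after 15 min, and meropenem (50 uM final) at 300 nm after 30 min.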

Activity change, negative = inhibition, inactive:
O=C(NCCc1csc(-c2cnccn2)n1)C1CC2(CCNCC2)CN1 (stereo unspecified) 40%
O=C(NC1CCCC1)N1CC(c2nnc(-c3ccncc3)o2)C2(CCOCC2)C1 (stereo unspecified) 1.54%
CN(Cc1cn(-c2ccccc2)nn1)Cc1nccn1Cc1ccccc1 13.8%
COC(=O)[C@H](Cc1ccc(OC)cc1)NC(=O)[C@@H]1CN(C(=O)c2cccc(F)c2)CCN1C(C)=O 1.4%
OCC1(O)CCN(C2CCN(c3ccc4c(c3)OCO4)CC2)CC1 4.58%
O=C(CN1CCOc2ccccc2C1)N[C@H]1CCOC[C@H]1C1CCOCC1 2.19%
COC[C@H]1CCCN1C(=O)C(C)[C@@H]1CC[C@@]2(C)CC[C@H](NC(C)=O)[C@@H](C)[C@@H]2[C@H]1O (stereo partly specified) 3.58% [at 57.5 µM]
O=C1Cc2c(-c3cccc(O)c3)n[nH]c2CN1CC1CC1 5.48% [at 76.7 µM]
CN(C)CCN1CC2(CCCN(C(=O)CN(C)c3ccccc3)C2)CCC1=O (stereo unspecified) -2.25%
O=C(N[C@H]1CCN2C(=O)[C@@H](Cc3c[nH]c4ccccc34)NC(=O)[C@H]12)c1cnccn1 3.09% [at 57.5 µM]
CC[C@H]1CN(S(=O)(=O)c2ccccc2)CC[C@H]1CC(=O)NCCOC -0.308% [at 57.5 µM]
Cc1ccccc1Nc1cnc2ccc(-c3cccc(CO)c3)nn12 63.5% [at 57.5 µM]
COc1cccc(C(=O)N[C@H]2[C@H](O)[C@H](O)C[C@@H]2c2ccc(N3CCOCC3)nc2)c1 4.01% [at 57.5 µM]
CC(C)C[C@@H]1N[C@H](C(=O)NCc2cccs2)Cc2c[nH]c3cccc1c23 0.396% [at 57.5 µM]
COc1cccc(Nc2ccc3c(n2)C(C)(C(=O)NCCc2cnc[nH]2)CN(C)C3)c1 (stereo unspecified) -0.198% [at 57.5 µM]
CSCC(=O)N1C[C@@H](NC(=O)Nc2ccc(F)cc2F)C[C@H]1C(=O)N(C)CC(N)=O -1.6%
COCCOc1ccnc(-c2noc([C@@H]3CCCN3Cc3ccc(C(=O)O)cc3)n2)c1 -4.19% [at 57.5 µM]
O=C(NCCc1ccccc1)C1CCN(C(=O)c2ncn3c2COC(c2ccc(F)cc2)C3)CC1 (stereo unspecified) 2.06%
Cc1cccc(N(CC(=O)N[C@H]2CC[C@H]2NC2CCCC2)S(C)(=O)=O)c1 -0.686%
O=C(C[C@@H]1O[C@H](CNS(=O)(=O)c2ccc(Cl)cc2)[C@@H](O)[C@H]1O)N1CCN(c2ccc(F)cc2)CC1 4.03%
CN(Cc1cccnc1)Cc1nc(C2(O)CCN(Cc3ccc(F)cc3)CC2)cs1 0.792% [at 57.5 µM]
COCCn1ncc(N2CCC(NC(=O)C(C)C)CC2)cc1=O 17.7%
O=C(Nc1ccccc1)Nc1ccc(=O)n2c1[C@@H]1C[C@@H](CN(C(=O)COc3ccccc3)C1)C2 9.88%
COCc1nc(C2CCCN(C(=O)c3nccn3C)C2)no1 (stereo unspecified) 1.83%
O=c1c2c(CO)c(-c3ccc(F)cc3)nn2ccn1Cc1cc(F)ccc1F -2.68%
Cn1ccc2c(C(=O)N[C@H](c3cccs3)C3CC(O)C3)cccc21 (stereo partly specified) 7.79%
COCc1cc(CNC(=O)c2cn(C3CCC(N)CC3)nn2)[nH]n1 (stereo unspecified) 4.58%
O=S(=O)(c1ccc(F)cc1)N1CCCC(Cc2noc(-c3cnccn3)n2)C1 (stereo unspecified) 0.251%
COCC(=O)N[C@H]1CO[C@H]2[C@@H]1OC[C@@H]2Nc1nccc(-c2cccc(C#N)c2)n1 3.1% [at 57.5 µM]
COc1ccc(CCc2nc3nccc(-c4ccc(OC)c(OC)c4)n3n2)cc1OC 3.44%
COc1ccc(CCC(=O)N2CCC3(CC2)CCC(O)(CN(C)C)CC3)cc1 0.818%
COc1ccc(C[C@H](NC(=O)[C@@]2(O)C[C@@H](O)[C@H](O)[C@@H](NC(=O)Nc3ccc(C)cc3)C2)C(N)=O)cc1 0.361%
CCN1CCC2(CCC1=O)CN(Cc1nc3c(cnn3C)c(=O)[nH]1)CCN2C (stereo unspecified) 62.9%
OC1(CN2CCCCC2)CCN(Cc2ccc(C(F)(F)F)cc2F)C1 (stereo unspecified) -1.26%
COc1cccc(CC(=O)N[C@@H]2CCC[C@@H](C(=O)NCc3cc(F)cc(F)c3)CC(=O)N(C)C2)c1 0.514%
CC1=C[C@@H](CNC(=O)CC(C)(C)CC(=O)O)[C@H](C(C)C)C[C@H]1Cc1nc2ccccc2n1C 12.7%
Brc1ccc(CN2CCC(c3nc4ccncc4[nH]3)C2)cc1 (stereo unspecified) 4.37%
CC(C)C1C(=O)N(C)CCN1C(=O)c1cc(COc2cccc(F)c2)[nH]n1 (stereo unspecified) 2.09%
COCCn1nc2n(c1=O)CCN(S(=O)(=O)c1c(C)nn(C)c1C)CC2 -1.21%
O=C(c1cccc(O)c1)N1CCNc2cnc(Nc3cccc(F)c3)nc2C1 9.32% [at 57.5 µM]
CC(=O)N1CCN(c2cc(-c3noc([C@@H]4CCCN4Cc4ccc(C(F)(F)F)cc4)n3)ccn2)CC1 1.01%
Cc1ccccc1NC(=O)Cn1c(-c2cccc(Cl)c2)nc(C)c(CCO)c1=O 0.478%
C[S+](=O)([O-])Nc1cccc(Nc2cnc3ccc(-c4cccc(CO)c4)nn23)c1 48.2% [at 57.5 µM]
CNC(=O)[C@@H](Cc1ccccc1)N1CCC[C@H]1C(=O)NC1CCOCC1 76.8% [at 57.5 µM]
CC1(C(=O)Nc2ccncc2)CCCc2cnc(Nc3ccccc3)nc21 (stereo unspecified) 1.44% [at 57.5 µM]
CC1=C[C@@H](CNC(=O)c2cncnc2)[C@H](C(C)C)C[C@H]1CC(=O)N(C)Cc1ccccc1 -0.536% [at 57.5 µM]
O=C(NCc1cnccn1)c1nc(-c2ccccc2)cc2[nH]ccc12 9.2% [at 57.5 µM]
O=C(O)c1ccc(CN2CC[C@@H](c3ccc4ccccc4c3)[C@H](O)C2)cc1 -1.37%
COc1ccccc1-c1[nH]nc2ncc(-c3ccccc3O)nc12 0.175% [at 57.5 µM]
O=C(O)c1cc(-c2ccccc2CO)cc(S(=O)(=O)N2CCCCCC2)c1 2.17%
CN1C[C@@H](NC(=O)c2ccccn2)C[C@H]1c1nc(-c2ccc(Cl)cc2)no1 13.9% [at 57.5 µM]
O=C(O)C[C@@H]1CCN(S(=O)(=O)c2ccccc2)C[C@@H]1CCN1CCN(c2cccc(C(F)(F)F)c2)CC1 0.911%
O=C(O)c1cc(-c2cccc(CO)c2)cc(S(=O)(=O)NC2CCCC2)c1 1.38%
COc1ccc(S(=O)(=O)N2C[C@@H](F)C[C@H]2C(=O)N2CCCCC2)cc1OC -2.33%
Cc1ccccc1-c1cnc2[nH]cc(CC(=O)NCCN3CCOCC3)c2c1 3.34% [at 57.5 µM]
COCCOc1ncccc1-c1noc([C@@H]2CCCN2C2CCN(C)CC2)n1 4.18% [at 57.5 µM]
COc1cccc(CN2CCCC3(CCN(C(=O)c4ccc(OC)nc4OC)C3)C2)c1 (stereo unspecified) -0.954%
NC(=O)C1CCCN(CCNc2cc(-c3ccccc3)nc3ccnn23)C1 (stereo unspecified) 29.7%
O=C(c1cnccn1)N1CC[C@H]2COC(=O)N2c2cc(F)ccc2C1 0.729% [at 57.5 µM]
CCN1CCC(CC(=O)N2CCCC3(C=Cc4ccccc4O3)CC2)CC1 (stereo unspecified) -1.29%
Cn1cc(CNC(=O)C[C@@H]2C[C@H]3O[C@H](CNCc4ccccc4OC(F)(F)F)[C@@H](O)[C@H]3O2)cn1 1.44%
NC1CCN(C(=O)C2CCCN(c3nc(-c4ccccc4)nc4c3CCC4)C2)CC1 (stereo unspecified) -0.926%
COC(=O)c1ccc2nc(C[C@@H]3C[C@@H](C(C)C)[C@H](CNCc4ccccc4F)C=C3C)[nH]c2c1 -1.26%
O=C([C@H]1CCC[C@@H](O)C1)N1CCN(Cc2ccc(C(F)(F)F)cc2)CC1 0.65%
Cc1cc(=O)n(CC(=O)Nc2cccc(C(C)C)c2)c(N2CCOCC2)n1 -0.201%
CN1C(=O)COC[C@@H]1[C@H](O)c1ccc(NC(=O)c2ccc3c(c2)OCO3)cc1 12.6% [at 57.5 µM]
CC1(C)C[C@H](NCc2ccc(CO)o2)[C@@]2(CCC(=O)N3CCOCC3)CC[C@](C)(O)C[C@@H]12 -0.751%
CN1CCCC2(CCN(S(=O)(=O)c3ccc(F)c(F)c3F)C2)C1=O (stereo unspecified) -0.416%
CN1[C@@H](CCC(=O)Nc2ccccc2)CNC(=O)[C@@H]2[C@H]1CCN2Cc1ccc(S(C)(=O)=O)cc1 -2.99%
NS(=O)(=O)c1ccc(CCNCC2(O)CNCCOC2)cc1 (stereo unspecified) -2.88%
O=C(Cn1ccn2nc3c(c2c1=O)CCCC3)NCc1ccc2c(c1)OCO2 1.26%
NC(=O)[C@H](CC1CCCCC1)NC(=O)[C@@H]1CN(C(=O)c2cccnc2)CCN1C(=O)C1CCNCC1 -0.826%
CC(Cc1cccnc1)NC(=O)c1cn(Cc2ccccc2C(F)(F)F)nn1 (stereo unspecified) 2.52%
O=C(Cn1ccn2nc(-c3ccc(F)cc3)c(CO)c2c1=O)N1CCCCCC1 3.05%
CC(O)CNS(=O)(=O)c1cccc(C(=O)Nc2cccc3c2CCC3)c1 (stereo unspecified) 2.1%
O=C(NCCc1ccccc1)c1cnc2n[nH]c(-c3ccccc3)c2n1 1.69% [at 57.5 µM]
